Data reported in patent US6544989B2, “Benzazoles: benzoxazole, benzthiazole and benzimidazole derivatives” (Syngenta Limited, priority 1998, dated 2003).

Columns and labels:
Conditions in all cases: 500 ppm by weight; mortality assessed usually between three and five days after treatment
Myzus persicae = assay: Pesticidal test, Myzus persicae mortality
Musca domestica = test system: Musca domestica
Tetranychus urticae = test system: Tetranychus urticae
Heliothis virescens = test system: Heliothis virescens
Spodoptera exigua = assay: Pesticidal test, Spodoptera exigua mortality

CCN(C(=O)Cc1ccc2oc(C)nc2c1)c1snc(C)c1Cl [2(C3)]
MYZUPE = Myzus persicae, grading of mortality (score) (Myzus persicae): 5 (5 indicates 40-79% mortality)
MUSCDO AK = Musca domestica (kill), grading of mortality (score) (Musca domestica): 0 (0 indicates less than 40% mortality)
TETRUR = Tetranychus urticae, grading of mortality (score) (Tetranychus urticae): 9 (9 indicates 80-100% mortality)
HELIVI = Heliothis virescens, grading of mortality (score) (Heliothis virescens): 0 (0 indicates less than 40% mortality)
LAPHEG = Spodoptera exigua, grading of mortality (score) (Spodoptera exigua): 5 (5 indicates 40-79% mortality)

C=CCN(C(=O)Cc1ccc2oc(CC(C)(C)C)nc2c1)c1snc(C)c1Cl [15(E3)]
MYZUPE = Myzus persicae, grading of mortality (score) (Myzus persicae): 9 (9 indicates 80-100% mortality)
MUSCDO AK = Musca domestica (kill), grading of mortality (score) (Musca domestica): 0 (0 indicates less than 40% mortality)
TETRUR = Tetranychus urticae, grading of mortality (score) (Tetranychus urticae): 9 (9 indicates 80-100% mortality)
HELIVI = Heliothis virescens, grading of mortality (score) (Heliothis virescens): 9 (9 indicates 80-100% mortality)
LAPHEG = Spodoptera exigua, grading of mortality (score) (Spodoptera exigua): 5 (5 indicates 40-79% mortality)

C#CCN(C(=O)Cc1ccc2oc(CCC)nc2c1)c1snc(C)c1Cl [4(F3)]
MYZUPE = Myzus persicae, grading of mortality (score) (Myzus persicae): 9 (9 indicates 80-100% mortality)
MUSCDO AK = Musca domestica (kill), grading of mortality (score) (Musca domestica): 5 (5 indicates 40-79% mortality)
TETRUR = Tetranychus urticae, grading of mortality (score) (Tetranychus urticae): 5 (5 indicates 40-79% mortality)
HELIVI = Heliothis virescens, grading of mortality (score) (Heliothis virescens): 0 (0 indicates less than 40% mortality)
LAPHEG = Spodoptera exigua, grading of mortality (score) (Spodoptera exigua): 9 (9 indicates 80-100% mortality)

Cc1nsc(NC(=O)Cc2ccc3oc(SCC#N)nc3c2)c1Cl [228(A3)]
MYZUPE = Myzus persicae, grading of mortality (score) (Myzus persicae): 0 (0 indicates less than 40% mortality)
MUSCDO AK = Musca domestica (kill), grading of mortality (score) (Musca domestica): 0 (0 indicates less than 40% mortality)
TETRUR = Tetranychus urticae, grading of mortality (score) (Tetranychus urticae): 0 (0 indicates less than 40% mortality)
HELIVI = Heliothis virescens, grading of mortality (score) (Heliothis virescens): 0 (0 indicates less than 40% mortality)
LAPHEG = Spodoptera exigua, grading of mortality (score) (Spodoptera exigua): 0 (0 indicates less than 40% mortality)

Cc1nsc(NC(=O)Cc2ccc3oc(CC(C)C)nc3c2)c1Cl [14(A3)]
MYZUPE = Myzus persicae, grading of mortality (score) (Myzus persicae): 9 (9 indicates 80-100% mortality)
MUSCDO AK = Musca domestica (kill), grading of mortality (score) (Musca domestica): 5 (5 indicates 40-79% mortality)
TETRUR = Tetranychus urticae, grading of mortality (score) (Tetranychus urticae): 9 (9 indicates 80-100% mortality)
HELIVI = Heliothis virescens, grading of mortality (score) (Heliothis virescens): 9 (9 indicates 80-100% mortality)
LAPHEG = Spodoptera exigua, grading of mortality (score) (Spodoptera exigua): 9 (9 indicates 80-100% mortality)

CCCc1nc2cc(CC(=O)Nc3snc(C)c3Cl)ccc2o1 [4(A3)]
MYZUPE = Myzus persicae, grading of mortality (score) (Myzus persicae): 9 (9 indicates 80-100% mortality)
MUSCDO AK = Musca domestica (kill), grading of mortality (score) (Musca domestica): 9 (9 indicates 80-100% mortality)
TETRUR = Tetranychus urticae, grading of mortality (score) (Tetranychus urticae): 5 (5 indicates 40-79% mortality)
HELIVI = Heliothis virescens, grading of mortality (score) (Heliothis virescens): 9 (9 indicates 80-100% mortality)
LAPHEG = Spodoptera exigua, grading of mortality (score) (Spodoptera exigua): 5 (5 indicates 40-79% mortality)

CCCc1nc2cc(CC(=O)N(CC)c3snc(C)c3Cl)ccc2o1 [4(C3)]
MYZUPE = Myzus persicae, grading of mortality (score) (Myzus persicae): 9 (9 indicates 80-100% mortality)
MUSCDO AK = Musca domestica (kill), grading of mortality (score) (Musca domestica): 5 (5 indicates 40-79% mortality)
TETRUR = Tetranychus urticae, grading of mortality (score) (Tetranychus urticae): 9 (9 indicates 80-100% mortality)
HELIVI = Heliothis virescens, grading of mortality (score) (Heliothis virescens): 0 (0 indicates less than 40% mortality)
LAPHEG = Spodoptera exigua, grading of mortality (score) (Spodoptera exigua): 9 (9 indicates 80-100% mortality)

Cc1nsc(NC(=O)Cc2ccc3nc(CC(C)(C)C)oc3c2)c1Cl [15(A23)]
MYZUPE = Myzus persicae, grading of mortality (score) (Myzus persicae): 5 (5 indicates 40-79% mortality)
MUSCDO AK = Musca domestica (kill), grading of mortality (score) (Musca domestica): 0 (0 indicates less than 40% mortality)
TETRUR = Tetranychus urticae, grading of mortality (score) (Tetranychus urticae): 9 (9 indicates 80-100% mortality)
HELIVI = Heliothis virescens, grading of mortality (score) (Heliothis virescens): 0 (0 indicates less than 40% mortality)
LAPHEG = Spodoptera exigua, grading of mortality (score) (Spodoptera exigua): 5 (5 indicates 40-79% mortality)

CC=C(C)c1nc2cc(CC(=O)Nc3snc(C)c3Cl)ccc2o1 [47(A3)]
MYZUPE = Myzus persicae, grading of mortality (score) (Myzus persicae): 9 (9 indicates 80-100% mortality)
MUSCDO AK = Musca domestica (kill), grading of mortality (score) (Musca domestica): 0 (0 indicates less than 40% mortality)
TETRUR = Tetranychus urticae, grading of mortality (score) (Tetranychus urticae): 0 (0 indicates less than 40% mortality)
HELIVI = Heliothis virescens, grading of mortality (score) (Heliothis virescens): 0 (0 indicates less than 40% mortality)
LAPHEG = Spodoptera exigua, grading of mortality (score) (Spodoptera exigua): 0 (0 indicates less than 40% mortality)

CCCc1nc2cc(CC(=O)N(CCC)c3snc(C)c3Cl)ccc2o1 [4(D3)]
MYZUPE = Myzus persicae, grading of mortality (score) (Myzus persicae): 5 (5 indicates 40-79% mortality)
MUSCDO AK = Musca domestica (kill), grading of mortality (score) (Musca domestica): 0 (0 indicates less than 40% mortality)
TETRUR = Tetranychus urticae, grading of mortality (score) (Tetranychus urticae): 9 (9 indicates 80-100% mortality)
HELIVI = Heliothis virescens, grading of mortality (score) (Heliothis virescens): 0 (0 indicates less than 40% mortality)
LAPHEG = Spodoptera exigua, grading of mortality (score) (Spodoptera exigua): 5 (5 indicates 40-79% mortality)

CC=Cc1nc2cc(CC(=O)Nc3snc(C)c3Cl)ccc2o1 [45(A3)]
MYZUPE = Myzus persicae, grading of mortality (score) (Myzus persicae): 9 (9 indicates 80-100% mortality)
MUSCDO AK = Musca domestica (kill), grading of mortality (score) (Musca domestica): 9 (9 indicates 80-100% mortality)
TETRUR = Tetranychus urticae, grading of mortality (score) (Tetranychus urticae): 5 (5 indicates 40-79% mortality)
HELIVI = Heliothis virescens, grading of mortality (score) (Heliothis virescens): 5 (5 indicates 40-79% mortality)
LAPHEG = Spodoptera exigua, grading of mortality (score) (Spodoptera exigua): 9 (9 indicates 80-100% mortality)

CCCCc1nc2cc(CC(=O)Nc3snc(C)c3Cl)ccc2o1 [5(A3)]
MYZUPE = Myzus persicae, grading of mortality (score) (Myzus persicae): 9 (9 indicates 80-100% mortality)
MUSCDO AK = Musca domestica (kill), grading of mortality (score) (Musca domestica): 0 (0 indicates less than 40% mortality)
TETRUR = Tetranychus urticae, grading of mortality (score) (Tetranychus urticae): 0 (0 indicates less than 40% mortality)
HELIVI = Heliothis virescens, grading of mortality (score) (Heliothis virescens): 5 (5 indicates 40-79% mortality)
LAPHEG = Spodoptera exigua, grading of mortality (score) (Spodoptera exigua): 5 (5 indicates 40-79% mortality)

Cc1nsc(NC(=O)Cc2ccc3oc(C(C)(C)C)nc3c2)c1Cl [9(A3)]
MYZUPE = Myzus persicae, grading of mortality (score) (Myzus persicae): 5 (5 indicates 40-79% mortality)
MUSCDO AK = Musca domestica (kill), grading of mortality (score) (Musca domestica): 0 (0 indicates less than 40% mortality)
TETRUR = Tetranychus urticae, grading of mortality (score) (Tetranychus urticae): 9 (9 indicates 80-100% mortality)
HELIVI = Heliothis virescens, grading of mortality (score) (Heliothis virescens): 9 (9 indicates 80-100% mortality)
LAPHEG = Spodoptera exigua, grading of mortality (score) (Spodoptera exigua): 5 (5 indicates 40-79% mortality)

Cc1nsc(NC(=O)Cc2ccc3ocnc3c2)c1Cl [1(A3)]
MYZUPE = Myzus persicae, grading of mortality (score) (Myzus persicae): 5 (5 indicates 40-79% mortality)
MUSCDO AK = Musca domestica (kill), grading of mortality (score) (Musca domestica): 0 (0 indicates less than 40% mortality)
TETRUR = Tetranychus urticae, grading of mortality (score) (Tetranychus urticae): 0 (0 indicates less than 40% mortality)
HELIVI = Heliothis virescens, grading of mortality (score) (Heliothis virescens): 0 (0 indicates less than 40% mortality)
LAPHEG = Spodoptera exigua, grading of mortality (score) (Spodoptera exigua): 0 (0 indicates less than 40% mortality)

Cc1nsc(NC(=O)Cc2ccc3oc(C(C)(C)CCl)nc3c2)c1Cl [98(A3)]
MYZUPE = Myzus persicae, grading of mortality (score) (Myzus persicae): 9 (9 indicates 80-100% mortality)
MUSCDO AK = Musca domestica (kill), grading of mortality (score) (Musca domestica): 0 (0 indicates less than 40% mortality)
TETRUR = Tetranychus urticae, grading of mortality (score) (Tetranychus urticae): 9 (9 indicates 80-100% mortality)
HELIVI = Heliothis virescens, grading of mortality (score) (Heliothis virescens): 5 (5 indicates 40-79% mortality)
LAPHEG = Spodoptera exigua, grading of mortality (score) (Spodoptera exigua): 5 (5 indicates 40-79% mortality)

CCCc1nc2ccc(CC(=O)Nc3snc(C)c3Cl)cc2o1 [4(A23)]
MYZUPE = Myzus persicae, grading of mortality (score) (Myzus persicae): 9 (9 indicates 80-100% mortality)
MUSCDO AK = Musca domestica (kill), grading of mortality (score) (Musca domestica): 0 (0 indicates less than 40% mortality)
TETRUR = Tetranychus urticae, grading of mortality (score) (Tetranychus urticae): 0 (0 indicates less than 40% mortality)
HELIVI = Heliothis virescens, grading of mortality (score) (Heliothis virescens): 0 (0 indicates less than 40% mortality)
LAPHEG = Spodoptera exigua, grading of mortality (score) (Spodoptera exigua): 0 (0 indicates less than 40% mortality)

Cc1nc2cc(CC(=O)Nc3snc(C)c3Cl)ccc2o1 [2(A3)]
MYZUPE = Myzus persicae, grading of mortality (score) (Myzus persicae): 9 (9 indicates 80-100% mortality)
MUSCDO AK = Musca domestica (kill), grading of mortality (score) (Musca domestica): 0 (0 indicates less than 40% mortality)
TETRUR = Tetranychus urticae, grading of mortality (score) (Tetranychus urticae): 0 (0 indicates less than 40% mortality)
HELIVI = Heliothis virescens, grading of mortality (score) (Heliothis virescens): 5 (5 indicates 40-79% mortality)
LAPHEG = Spodoptera exigua, grading of mortality (score) (Spodoptera exigua): 0 (0 indicates less than 40% mortality)

Cc1nsc(NC(=O)Cc2ccc3oc(CCc4ccccc4)nc3c2)c1Cl [247(A3)]
MYZUPE = Myzus persicae, grading of mortality (score) (Myzus persicae): 9 (9 indicates 80-100% mortality)
MUSCDO AK = Musca domestica (kill), grading of mortality (score) (Musca domestica): 0 (0 indicates less than 40% mortality)
TETRUR = Tetranychus urticae, grading of mortality (score) (Tetranychus urticae): 0 (0 indicates less than 40% mortality)
HELIVI = Heliothis virescens, grading of mortality (score) (Heliothis virescens): 0 (0 indicates less than 40% mortality)
LAPHEG = Spodoptera exigua, grading of mortality (score) (Spodoptera exigua): 0 (0 indicates less than 40% mortality)

Cc1nsc(NC(=O)Cc2ccc3oc(SC(C)C)nc3c2)c1Cl [223(A3)]
MYZUPE = Myzus persicae, grading of mortality (score) (Myzus persicae): 9 (9 indicates 80-100% mortality)
MUSCDO AK = Musca domestica (kill), grading of mortality (score) (Musca domestica): 0 (0 indicates less than 40% mortality)
TETRUR = Tetranychus urticae, grading of mortality (score) (Tetranychus urticae): 0 (0 indicates less than 40% mortality)
HELIVI = Heliothis virescens, grading of mortality (score) (Heliothis virescens): 5 (5 indicates 40-79% mortality)
LAPHEG = Spodoptera exigua, grading of mortality (score) (Spodoptera exigua): 0 (0 indicates less than 40% mortality)
